# Experimental data published in PubChem BioAssay AID686979 (National Center for Advancing Translational Sciences (NCATS), 2013).
# Hit rate of the full screen: of about 420,000 compounds, about 50,000 (12%) were called active. About 26% were inconclusive and are not listed. Calls come from the whole dose curve; as a rule, active = well fitted inhibition curve with a large enough effect; inconclusive = small, poorly fitted or top-dose-only effect; inactive = flat fitted curve, though single readings scatter. This is a selection; strong and weak results do not stand in their true shares. Some structures have more than one record in an assay (separate samples or runs), and their calls can disagree.
# Assay: qHTS for Inhibitors of human tyrosyl-DNA phosphodiesterase 1 (TDP1): qHTS in cells in presence of CPT; note: nearly all actives have a fitted effect of over 55% in size
# Details: chicken DT40 Tdp1-/-;hTDP1 cells + 20 nM CPT, ATP luminescence, 48 h; series mostly up to 46.2 µM; activity change, negative = growth inhibition: at the top concentration
# Summary of the method: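 Chicken DT40 Tdp1-/- cells complemented with human TDP1, 400 cells/well, exposed to compounds plus 20 nM camptothecin for at least 48 h at 37 C; viability read as ATP content by CellTiter-Glo luminescence.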
# % is set by controls: 0 for no effect and ±100 for the full control effect; potency is the fitted concentration of half-maximal effect.
SMILES,Potency,"activity change, negative = growth inhibition"
CS(=O)(=O)c1ccccc1C(=O)N(CCC1=CCCCC1)c1c(N)n(Cc2ccccc2)c(=O)[nH]c1=O,active: 29.1 µM,
CC1=C(C(=O)Nc2ccccc2)C(c2ccc(C)cc2)N=C(Nc2nc3ccccc3o2)N1 (stereo unspecified),active: 18.4 µM,
O=C1/C(=C/c2ccncc2)SC(=S)N1C1CCCCC1,,inactive: -12.5%
OCC[C@@H]1C[C@@H](O)[C@H](O)[C@]2(OCCc3ccccc32)O1,,inactive: -20.9%
Cc1nnc(SCC(=O)Nc2cc(S(=O)(=O)N3CCOCC3)ccc2N2CCCC2)s1,,inactive: 50.6%
O=C1C(Cc2ccccc2)Nc2ncnc(N3CCOCC3)c2N1Cc1ccc(Cl)cc1 (stereo unspecified),,inactive: -18.8%
CCOCN(C(=O)Cn1cnc2ccccc21)c1c(C)cccc1CC,active: 20.6 µM,
CCC(C)NC(=S)Nc1ccccc1OC (stereo unspecified),,inactive: -2.27%
CNC(=O)c1ccc(NC(=O)c2cc(S(=O)(=O)N3CCOCC3)ccc2N2CCCC2)cc1,,inactive: -2.53%
COc1ccc(N2CCN(C(=O)COCc3cc(-c4ccc5c(c4)OCO5)on3)CC2)cc1,,inactive: -28.9%
CCOc1ccc(NC(=O)CSc2ncnc3c2sc2ccccc23)cc1,,inactive: -0.672%
COc1ccc(/C=C(\NC(=O)c2ccc([N+](=O)[O-])cc2)C(=O)NCCN2CCOCC2)cc1,,inactive: 3.24%
CCOC(=O)[C@@H]1[C@H]2COc3cc(OC)ccc3[C@@H]2N2C(=O)N(c3cccc(F)c3)C(=O)[C@]12C,,inactive: -11.1%
CC(NC(=O)COc1ccccc1)C(=O)OCC(=O)c1cc2ccccc2o1 (stereo unspecified),,inactive: -18.2%
CCCC(C)C(=O)Nc1cc([N+](=O)[O-])ccc1Cl (stereo unspecified),,inactive: 33.4%
CC(=O)Nc1ccc(NC(=O)c2cc(=O)c3ccccc3o2)cc1,,inactive: -24.5%
COc1ccccc1Oc1coc2cc(O)ccc2c1=O,,inactive: -24.4%
O=C1CCC(=O)N1OCCOc1ccc(Cl)c2ccccc12,,inactive: 37.1%
C=CC[C@H](CC(=O)OC(C)(C)C)C(=O)OC[C@H]1CCCN1C(=O)[C@H](CC=C)CC(=O)NCCO,,inactive: -1.68%
COc1ccc(COCCN2CCN(S(=O)(=O)c3ccc(C)cc3)CCC2=O)cc1,active: 20.6 µM,
O=C(O)COCCN1CCN(C(c2ccccc2)c2ccc(Cl)cc2)CC1 (stereo unspecified),inactive,

SMILES,Potency,"activity change, negative = growth inhibition"
C[C@H]1CN(C2CCCCC2)C(=O)[C@@H]1CC(=O)NCc1ccccc1,,inactive: 9.13%
N=C(N)c1ccc(/C=C/c2ccc(C(=N)N)cc2O)cc1,,inactive: -103%
Cc1cccc(-c2cc(=O)c3cc(C)ccc3o2)c1,,inactive: 5.69%
O=C(Nc1nnc(-c2ccco2)o1)c1ccc([N+](=O)[O-])s1,active: 8.2 µM,
Cc1cccc(CC(=O)Nc2ccc3nc(N4CCC(C)CC4)cc(C)c3c2)c1,active: 20.6 µM,
COc1ccc([C@H]2CC(=O)c3c(O)cc(O)cc3O2)cc1O,,inactive: -1.14%
NS(=O)(=O)c1ccc(NC(=O)CCCCC(=O)Nc2ccc(S(N)(=O)=O)cc2)cc1,,inactive: -31.2%
Cc1cc(OC(C)C(=O)NC(Cc2c[nH]c3ccc(O)cc23)C(=O)O)c2c(C)cc(=O)oc2c1 (stereo unspecified),,inactive: 37.1%
CCC1OC(=O)C(C)C(OC2C[C@@](C)(OC)C(O)C(C)O2)C(C)C(O[C@@H]2OC(C)CC(N(C)C)C2O)[C@](C)(O)CC(C)C(=NOCOCCOC)C(C)C(O)[C@]1(C)O (stereo partly specified),,inactive: -13.3%
CC1CCCCN1S(=O)(=O)c1ccc(C(=O)N(CCCN(C)C)c2nc3ccc(Br)cc3s2)cc1 (stereo unspecified),active: 20.6 µM,
COc1cc(OC)c(NC(=O)CCNS(=O)(=O)c2ccc3c(c2)oc(=O)n3C)cc1Cl,,inactive: 1.44%
CC(=O)NC(CCS(C)(=O)=O)C(=O)Nc1cccc2ccccc12 (stereo unspecified),,inactive: 38.3%
CCN(c1cc(C)cc(C)c1)S(=O)(=O)c1nnc(NC(=O)c2ccco2)s1,,inactive: -30%
CCCS(=O)(=O)N1CCN(C2Cc3ccccc3C2)CC1,,inactive: 3.04%
CCOc1ccc(C(=O)Nc2ccc3nc(SCC(=O)N(C)c4ccccc4)sc3c2)cc1,active: 2.06 µM,
CCc1ccc(NC(=O)N(Cc2cn(CC)c3ccccc23)C2CCCCC2)cc1,active: 7.31 µM,
COc1cc2[nH]c(C)c(-c3ccccc3)c(=O)c2cc1Cl,,inactive: -3.77%
CC1(C)CCCC2=C1CC1C(=O)N(N)C(=O)C1C2 (stereo unspecified),,inactive: 33.9%
C[C@]12CC[C@@H]3c4ccc(O)cc4CC[C@H]3[C@@H]1CC[C@@H]2O,,inactive: -22.8%
CC1CC2C3CCC4=CC(=O)C=CC4(C)C3(F)C(O)CC2(C)C1(O)C(=O)CO (stereo unspecified),,inactive: -23.2%
Cn1cc(NC(=O)c2cc(NC(=O)c3cc(NC=O)cn3C)cn2C)cc1C(=O)NCCC(=N)N,,inactive: 20.9%

SMILES,Potency,"activity change, negative = growth inhibition"
CCN(CC)CCCNc1nc2cc(OC)c(OC)cc2c2nc(-c3cccnc3)nn12,active: 14.6 µM,
CC1=C(CC(=O)O)c2cc(F)ccc2/C1=C\c1ccc(S(C)=O)cc1 (stereo unspecified),inactive,
COc1ccccc1NC(=S)NC1CCC(CC2CCC(NC(=S)Nc3ccccc3OC)CC2)CC1 (stereo unspecified),active: 10.3 µM,
CCCc1cc(=O)[nH]c(=S)[nH]1,inactive,
CN(C)S(=O)(=O)c1ccc(C(=O)Oc2ccccc2)cc1,,inactive: 39.4%
COc1cc(C(=O)NCCCc2nc3ccccc3n2CC(C)C)cc(OC)c1OC,active: 20.6 µM,
O=C(O)c1cccc(S(=O)(=O)N2CCN(c3ccccn3)CC2)c1,,inactive: 31.5%
CCN(CC)c1nc(SCCOC(=O)Nc2ccccc2)nc(N(CC)CC)n1,active: 18.4 µM,
COc1ccccc1C(=O)N/C(=C\c1ccc(Br)cc1)C(=O)N1CCCC1,,inactive: -29.7%
O=C(CNC(=O)c1cccs1)OCc1c(F)cccc1Cl,,inactive: 30%
COc1ccc(N2C(=S)NC3CS(=O)(=O)CC32)cc1 (stereo unspecified),,inactive: 30.2%
COc1ccc(N2CCN(C(=O)c3nn(C)c4c3CS(=O)(=O)c3ccccc3-4)CC2)cc1,,inactive: -2.2%
O=C(O)c1ccc(NCc2nc3ccccc3n2CCOc2ccccc2Cl)cc1,,inactive: 2.89%
Cc1ccc(N2CC(C(=O)NCCS(=O)(=O)N3CCN(c4ccccc4F)CC3)CC2=O)cc1 (stereo unspecified),,inactive: 12.4%
Cc1cccc(CSc2nc3c(c(=O)[nH]2)CCC3)c1,,inactive: -27.7%
COc1c(O)cc2c(c1O)C1OC(CO)C(O)C(O)C1OC2=O (stereo unspecified),,inactive: 11.3%
COc1ccccc1/C=C\C=N\NC(=O)CCn1nnc2ccccc21,,inactive: -22.3%
COc1cc(-c2noc(C)c2C#CC2(O)CCCCC2)cc(OC)c1OC,,inactive: -109%
c1ccc2c(C[C@@H]3CNCCN3CCC34CC5CC(CC(C5)C3)C4)cccc2c1,active: 18.4 µM,
